From publication PMC4336329 (PLoS ONE, 2015)
Hit rate of the full screen: of about 310,000 compounds, about 14,000 (4.5%) showed an effect of 50% or more. The effect is printed as a negative number. This is one part of the list.

biological target: human ether-à-go-go-related gene (hERG) potassium channel (human, UniProt Q12809); assay: primary screen, population patch clamp on CHO cells stably expressing hERG
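Note: peak tail current of the secondary pulse compared with the same well before compound.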

human ether-à-go-go-related gene (hERG) potassium channel, sequence (Q12809 whole entry, looked up): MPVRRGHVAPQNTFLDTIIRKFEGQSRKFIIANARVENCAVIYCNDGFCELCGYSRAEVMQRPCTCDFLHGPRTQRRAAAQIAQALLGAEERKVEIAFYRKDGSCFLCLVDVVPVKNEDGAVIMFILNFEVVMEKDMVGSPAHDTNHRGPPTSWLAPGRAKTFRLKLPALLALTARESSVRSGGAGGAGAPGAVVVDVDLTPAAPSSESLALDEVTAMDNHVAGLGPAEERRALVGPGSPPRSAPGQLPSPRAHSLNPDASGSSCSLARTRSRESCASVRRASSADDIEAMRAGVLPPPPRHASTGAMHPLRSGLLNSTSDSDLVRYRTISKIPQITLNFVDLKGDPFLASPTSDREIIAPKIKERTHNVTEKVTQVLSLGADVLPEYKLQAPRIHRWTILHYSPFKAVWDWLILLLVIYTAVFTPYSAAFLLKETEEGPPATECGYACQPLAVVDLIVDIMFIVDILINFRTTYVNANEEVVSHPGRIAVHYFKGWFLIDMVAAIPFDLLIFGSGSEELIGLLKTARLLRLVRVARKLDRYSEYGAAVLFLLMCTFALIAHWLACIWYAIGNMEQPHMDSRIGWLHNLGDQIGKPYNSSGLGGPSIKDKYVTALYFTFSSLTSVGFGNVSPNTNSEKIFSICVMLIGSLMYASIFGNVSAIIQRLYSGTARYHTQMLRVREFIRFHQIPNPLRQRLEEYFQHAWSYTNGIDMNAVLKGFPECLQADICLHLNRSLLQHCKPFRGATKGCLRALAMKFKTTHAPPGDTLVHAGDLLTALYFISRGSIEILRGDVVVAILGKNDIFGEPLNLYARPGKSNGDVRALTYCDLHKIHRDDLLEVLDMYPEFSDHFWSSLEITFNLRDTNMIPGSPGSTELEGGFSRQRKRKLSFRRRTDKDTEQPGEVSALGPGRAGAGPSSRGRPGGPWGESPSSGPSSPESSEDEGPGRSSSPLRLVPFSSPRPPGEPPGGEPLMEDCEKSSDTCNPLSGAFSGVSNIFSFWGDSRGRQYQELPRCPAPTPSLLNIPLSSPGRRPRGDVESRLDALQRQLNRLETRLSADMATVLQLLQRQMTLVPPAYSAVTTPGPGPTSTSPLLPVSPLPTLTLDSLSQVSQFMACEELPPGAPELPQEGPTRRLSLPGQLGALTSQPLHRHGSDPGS

Row | Compound | hERG current change (%, negative = inhibition) at 10uM
1 | O=C(/C=C(\O)c1ccc(Cl)cc1)C(=O)NNC(=O)C(O)(c1ccccc1)c1ccccc1 | -2.73%
2 | CC#CCCCC(=O)Nc1cccc(C(=O)O)c1 | 0.392%
3 | CCn1c(=O)c2ccccc2n(Cc2cccc(C)c2)c1=O | 3.93%
4 | Cc1ccc(C)c(OCCC(=O)OCC(=O)Nc2cccnc2Cl)c1 | 9.83%
5 | O=C(O)CSC1c2ccccc2C(=O)N1c1ccccc1 (stereo not drawn) | 12.2%
6 | Cc1ccc(N=Cc2cc3c(cc2[N+](=O)[O-])OCO3)cc1[N+](=O)[O-] | 17.4%
7 | O=c1[nH]c(/C=C/c2ccccc2[N+](=O)[O-])nc2ccccc12 | 7.84%
8 | CC1CCC(NC(=O)COC(=O)C2CC3CCCC(C2)C3=O)CC1 (stereo not drawn) | -0.0582%
9 | O=C(O)c1cccc(Oc2cccc(Cl)n2)c1 | 19.1%
10 | COc1ccc(OC)c(Cc2nnc(CCC(=O)NCc3nc4ccccc4s3)o2)c1 | -9.48%
11 | CCOC(=O)N1CCN(C(=O)c2cc(COc3c(F)cccc3F)on2)CC1 | -6.31%
12 | Cc1ccc(NC(/C=C/N(C)C)=C/C(=O)C(F)(F)F)c(C)c1 | -56.7%
13 | CCN(c1ccccc1)c1nc(C#N)nc(N(CC)c2ccccc2)n1 | 3.56%
14 | COc1ccc(N2C(=O)CC(N3CCN(Cc4ccc5c(c4)OCO5)CC3)C2=O)cc1 (stereo not drawn) | 25.1%
15 | CCC(C)NCCCOc1ccc([N+](=O)[O-])cc1.O=C(O)C(=O)O (stereo not drawn) | -74.7%
16 | CC(OC(=O)c1ccc(NS(=O)(=O)c2cccs2)cc1)C(=O)N(C)C1CCCCC1 (stereo not drawn) | -0.558%
17 | COc1ccc(NCc2nnc(SCC(=O)Nc3cc(C(F)(F)F)ccc3Cl)o2)cc1 | 15%
18 | COc1ccccc1NC(=O)Nc1nn(C)c2cccc(N(C)C)c12 | 11%
19 | Cc1cc(NC(=O)c2cccc(Oc3ccccc3)c2)n[nH]1 | 1.16%
20 | C[C@@H]1CN(C(=O)c2cc(COc3cccc(C(F)(F)F)c3)on2)C[C@H](C)O1 | 8.11%
21 | Cc1cccc(-c2oc3ccc(-c4ccc5c(c4)OCO5)cc3c2C(=O)OCc2ccc(O)cc2)c1 | 6.27%
22 | COC(=O)c1c(Cc2ccccc2Cl)c[nH]c1C | 14.2%
23 | O=C(CSc1c2c(nc3ccccc13)CCC2)N1CCCC1 | 4.57%
24 | CC(=O)N1c2ccc(S(=O)(=O)NCCC(=O)N3CCCC(C)C3)cc2CC1C (stereo not drawn) | 10.4%
